According to article PMC4336329 (PLoS ONE, 2015):
Hit rate of the full screen: of about 310,000 compounds, about 14,000 (4.5%) showed an effect of 50% or more. Effects have a minus sign here. This is one part of the list.

Target: human ether-à-go-go-related gene (hERG) potassium channel (human, UniProt Q12809)
Experiment: primary screen, population patch clamp on CHO cells stably expressing hERG
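Note: peak tail current of the secondary pulse compared with the same well before compound.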

human ether-à-go-go-related gene (hERG) potassium channel, sequence (Q12809 whole entry, looked up): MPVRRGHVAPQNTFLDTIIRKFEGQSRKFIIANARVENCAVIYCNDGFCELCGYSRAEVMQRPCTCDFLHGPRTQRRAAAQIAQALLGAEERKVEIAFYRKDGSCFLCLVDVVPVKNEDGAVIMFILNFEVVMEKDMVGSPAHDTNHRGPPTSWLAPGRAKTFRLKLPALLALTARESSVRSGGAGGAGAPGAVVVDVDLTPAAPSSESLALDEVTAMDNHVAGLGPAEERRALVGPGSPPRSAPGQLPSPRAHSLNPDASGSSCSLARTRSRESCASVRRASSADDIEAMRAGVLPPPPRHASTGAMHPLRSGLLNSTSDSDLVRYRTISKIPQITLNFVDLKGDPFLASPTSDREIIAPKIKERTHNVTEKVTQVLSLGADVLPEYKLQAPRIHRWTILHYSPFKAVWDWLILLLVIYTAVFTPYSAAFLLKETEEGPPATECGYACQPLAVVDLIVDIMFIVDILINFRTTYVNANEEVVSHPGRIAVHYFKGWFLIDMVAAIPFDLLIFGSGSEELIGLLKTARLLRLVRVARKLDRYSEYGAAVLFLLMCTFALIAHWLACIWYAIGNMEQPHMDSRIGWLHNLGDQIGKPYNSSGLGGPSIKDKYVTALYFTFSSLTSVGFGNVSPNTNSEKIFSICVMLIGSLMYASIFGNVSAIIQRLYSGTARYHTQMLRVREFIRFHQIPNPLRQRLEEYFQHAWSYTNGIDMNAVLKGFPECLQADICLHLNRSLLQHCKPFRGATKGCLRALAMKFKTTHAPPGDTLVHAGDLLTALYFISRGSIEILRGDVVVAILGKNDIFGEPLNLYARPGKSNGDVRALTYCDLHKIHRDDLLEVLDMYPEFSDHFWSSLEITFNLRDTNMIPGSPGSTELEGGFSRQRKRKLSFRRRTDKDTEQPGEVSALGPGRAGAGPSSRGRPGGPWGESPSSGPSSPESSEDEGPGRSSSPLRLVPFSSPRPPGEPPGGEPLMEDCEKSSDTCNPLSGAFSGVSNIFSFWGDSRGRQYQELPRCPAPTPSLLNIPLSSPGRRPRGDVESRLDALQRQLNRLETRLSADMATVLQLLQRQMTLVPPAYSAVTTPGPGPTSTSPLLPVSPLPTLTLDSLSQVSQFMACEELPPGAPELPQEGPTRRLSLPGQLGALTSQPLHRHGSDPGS

SMILES	hERG current change (%, negative = inhibition) at 10uM [%]
Cl.c1ccc(COc2ccc(CNCc3cccnc3)cc2)cc1	-12.8
COc1ccc(/C=C2\Oc3cc(OCC(=O)N4CCC[C@H]4C(=O)O)ccc3C2=O)cc1OC	-3.38
CCN(CC)S(=O)(=O)c1ccc2c(c1)c(=O)c(C(=O)NCCc1ccccc1)cn2C	-0.204
COc1ccc(S(=O)(=O)NCc2ccccn2)c(C)c1C	0.26
Cc1ccc(N=Cc2c(O)c3ccccc3oc2=O)cc1F	15.5
COc1cc([N+](=O)[O-])ccc1-c1ccc(C(=O)Nc2ccc(NC(C)=O)cc2)o1	-3.8
CCOC(=O)c1[nH]c(C)c(C(=O)NCc2ccco2)c1C	-4.63
CCOC(=O)C1=C(C)NC2=C(C(=O)C(C(=O)OCC)C(c3ccccc3OC)C2)C1c1ccccn1 (centres unmarked)	-5.07
O=C(OCC(=O)N1CCc2ccccc21)c1c2c(nc3ccccc13)CCCCC2	8.66
Cc1cccc2cc(C#N)c(NCc3ccccc3)nc12	16.6
Nc1nnc(SCC(=O)Nc2cccc(S(=O)(=O)N3CCCCC3)c2)s1	-12.8
COc1ccc(Cl)c2sc(N3CCN(C(C)=O)CC3)nc12	-20.4
O=C(O)CCc1ccc(-c2ccc(Br)cc2)n1-c1cccc(O)c1	7.19
COc1ccccc1N1CCN(C(=O)c2ccc3c(=O)n4c(nc3c2)CCCCC4)CC1.Cl	-5.46
O=S(=O)(c1ccccc1)N1CCN(C(=S)NCc2ccccc2)CC1	-50.3
Cc1cc(C)n(Cc2cccc(F)c2)c(=O)c1C#N	-2.93
Cc1ccccc1/C(N)=N/OC(=O)N1c2ccccc2Sc2ccccc21	11.6
COc1ccc(NC(=O)CSc2nc(SC)ns2)cc1	10.5
Cc1nn(-c2ccccc2)c(Cl)c1/C=N/Nc1nc2ccccc2n1C	-3.1
CCOC(=O)N1CCC(NC(=O)c2cc3c(=O)n(C)c4ccccc4c3n2C)CC1	5.27
CCOC(=O)N1CCN(Cc2nc3c(c(=O)[nH]c(=O)n3C)n2Cc2ccccc2C)CC1	-19.9
COc1cccc(/C=C2\SC(=S)N(CCCC(=O)Nc3ccc(C(=O)O)cc3)C2=O)c1	22.8
CCOc1ccc(S(=O)(=O)N2CCCC(C(=O)Nc3cccc(C)c3)C2)cc1 (centres unmarked)	25.1

SMILES	hERG current change (%, negative = inhibition) at 10uM [%]
CCOC(=O)[C@H]1[C@H]2COc3ccccc3[C@@H]2N2C(=O)c3cc(OC)ccc3NC(=O)[C@@]12C	-15.4
COC(=O)Nc1ccc(S(=O)(=O)N2CCCC(C(=O)N3CCCCC3)C2)cc1 (centres unmarked)	2.2
O=C(OCC(=O)N1CCCC1)c1cccc(Br)c1	10.6
CCCC(=O)Nc1ccc(N2CCOCC2)cc1	9.8
COc1cccc(C(=O)N2CCC3(CC2)OCCO3)c1	20.3
C=CCC1(CC=C)CCCN1C(=O)Cn1nnnc1CN(C)C(C)C	20.3
CCn1c(=O)n(CC(=O)N2CC(C)CC(C)C2)c(=O)c2ccccc21 (centres unmarked)	-7.45
Nc1nc(SCCO)[nH]c(=O)c1NC(=O)c1ccco1	24.2
CNc1ccc(/C=C(\C#N)c2ccccn2)cc1[N+](=O)[O-]	23.3
Cc1ccc(NC(=O)Cn2cc(C=O)c3ccccc32)cc1C	11.4
COC(=O)C1CN(C(=O)COc2cc(C)cc(C)c2)c2ccccc2O1 (centres unmarked)	21.3
CCCCS(=O)(=O)c1sc2nc3c(cc2c1N)CCCC3	6.17
CC1(C)C[C@@H]1C(=O)N/C(=C\CCCCSC[C@H](N)C(=O)O)C(=O)[O-].[Na+]	6.5
Cc1ccc(C(=O)c2ccc(C)cc2)cc1	20.3
COc1cc(OC)cc(C(=O)NNc2nc3cc4c(cc3s2)OCO4)c1	-6.81
CCc1ccc(NC(=O)C2CCCN2C(=O)NC2CCCCC2)cc1 (centres unmarked)	17.5
O=C(CNC(=O)C1CCCCC1)NC1CCCCC1	14
O=[N+]([O-])c1cc(Cl)cc(/C=N/n2cnnc2)c1O	8.17
CCN(CC)CCCNc1nc2ccccc2c2nc(-c3ccncc3)nn12	-56.6
CC(C)CCn1c(CN2CCN(c3cccc(Cl)c3)CC2)nc2c1c(=O)n(C)c(=O)n2C	-5.6
COc1cccc(NC(=S)N2CCN(C/C=C/c3ccccc3)CC2)c1	-44.7
Cc1ccc(S(=O)(=O)NCC(=O)N(c2ccccc2)C(C(=O)NCc2ccccc2)c2ccco2)cc1 (centres unmarked)	-6.04
COc1ccc(NC(=O)Nc2nnc(-c3ccncc3)s2)cc1	51.5

SMILES	hERG current change (%, negative = inhibition) at 10uM [%]
COc1ccc(C(=O)NC(=S)NNC(=O)[C@H]2C[C@@H]2c2ccccc2)cc1OC	14
CC(C)(C)c1ccc(OCCC(=O)OCC(=O)NC(=O)NC2CCCC2)cc1	10.7
Cc1ccc(S(=O)(=O)N2CCOCC2)cc1C(=O)OCC(=O)NC1CCS(=O)(=O)C1 (centres unmarked)	9.67
CC(=O)Nc1ccc(OCC[n+]2cccc(C(N)=O)c2)cc1.[Br-]	20
COc1ccccc1OCCOCCOc1ccc(C)cc1Br	5.98
CCN(CC)c1ccc(C(=O)N2CCN(Cc3ccccc3)CC2)cc1	-37.8
Cn1c(C(=O)O)c(S(=O)(=O)c2ccc(Cl)cc2)c2ccccc21	28.7
CCOC(=O)N1CCC(NC(=O)c2ccc(OC)c(CN3CC(=O)N4CCCC4C3=O)c2)CC1 (centres unmarked)	5.49
COC(=O)C1CCN(c2ccc([N+](=O)[O-])cc2[N+](=O)[O-])CC1	-0.88
CC1=C(C(=O)OCc2cc(C)on2)N2C(=O)[C@@H](NC(=O)OCc3cc(C)on3)[C@H]2SC1	-13.2
Cc1ccc(N(CC(=O)Nc2c(C)n(C)n(-c3ccccc3)c2=O)S(C)(=O)=O)c(C)c1	9.22
CC(C)c1ccc(CCNC(=O)c2ccc([N+](=O)[O-])cc2)cc1	-4.12
Cc1ccc(S(=O)(=O)NCC(=O)N2CCN(c3ccccn3)CC2)cc1	-14.6
CC1(C)NC(=O)N(CCCCOc2ccc(Br)cc2Cl)C1=O	-25.4
CC1CCN(C(=O)COC(=O)CCc2c[nH]c3ccccc23)CC1	9.1
CCC1CCCCN1C(=S)NC(=O)c1cc(Br)ccc1Cl (centres unmarked)	-6.81
CC(=C/c1ccccc1)/C=N/n1cnnc1	-33.7
CC(=O)Nc1cccc(NC(=O)CSc2ccc(-c3ccccn3)nn2)c1	14.1
O=c1c2ccccc2oc2cc(-c3ccc(CN4CCOCC4)cc3)ccc12	2.09
COc1ccc(Cl)cc1NC(=O)CCc1ccccc1	-5.7
CC(C)(C)c1ccc(C2/C(=C(\O)c3ccc4c(c3)OCCO4)C(=O)C(=O)N2CCCN2CCOCC2)cc1 (centres unmarked)	9
CCC(=O)N(CCC1(c2ccccc2OC)CCOC(C(C)C)C1)Cc1ccco1 (centres unmarked)	-24.4
COC(=O)c1cc(OC)c(OC)cc1NC(=O)c1cc(OC)cc(OC)c1	21.4

SMILES	hERG current change (%, negative = inhibition) at 10uM [%]
Cc1ccc(C(=O)Nc2ncc(Cc3ccc(SC(F)F)cc3)s2)cc1	-11.3
CCCOc1ccc(N2CC(C(=O)Nc3ccc4c(c3)OCO4)CC2=O)cc1 (centres unmarked)	10.9
Cc1ccc(CSc2nnc(NC(=O)Cn3cnc4ccccc4c3=O)s2)cc1	7.82
FC(F)(F)c1cnc2c(c1)Nc1ccccc1S2	-8.83
NC(=O)c1ccsc1N	16.3
CC1CCCCN1CCNC(=O)CN1C(=O)COc2ccccc21 (centres unmarked)	-1.86
Cc1cccc(CCNC(=O)C2CCC(CNS(=O)(=O)c3cccs3)CC2)c1 (centres unmarked)	7.67
COC(=O)c1c(C)[nH]c(C(=O)C(C)[N+]23CCN(CC2)CC3)c1C.[Cl-] (centres unmarked)	3.78
COc1ccc(C(=O)O)cc1F	16
N/C(COc1ccccc1)=N\NC(=O)c1cccnc1Oc1ccccc1	6.43
CC(CNC(=O)c1cc(COc2c(F)cccc2F)on1)c1ccccc1 (centres unmarked)	-1.55
Cc1nc2nc[nH]n2c(=O)c1NS(=O)(=O)c1ccc(F)cc1	21.8
O=C(CSc1nnc(NC(=O)c2c(F)cccc2F)s1)NC1CCCCC1	6.01
Cc1ccc(OCCNS(=O)(=O)c2cccs2)cc1	1.75
CCCCn1nnnc1NCc1ccc(C)cc1	13.2
Cc1cc(C)c(S(=O)(=O)N(C)Cc2cnn(C)c2)c(C)c1	5.95
CCc1ccc(-c2csc(NC(=O)c3cccnc3)n2)cc1	-3.93
Cc1ccc(OCc2cc(C(=O)N3CCc4[nH]cnc4C3c3ccccn3)no2)cc1C (centres unmarked)	-13.8
O=[N+]([O-])c1ccc(Sc2ccccc2)nc1	8.82
CC(=O)N1CCN(C(=O)c2ccc(-c3ccccc3Cl)o2)CC1	-20
